Assay results from PubChem BioAssay AID1347120 (National Center for Advancing Translational Sciences (NCATS), 2019).
Hit rate of the full screen: of about 390,000 compounds, about 930 (0.24%) were called active. Inconclusive means that the source gave no clear call. Such entries were picked first, then a sample of the others. Calls come from the whole dose curve; as a rule, active = well fitted activation curve with a large enough effect; inconclusive = small, poorly fitted or top-dose-only effect; inactive = no such curve, though single readings can be large or run the other way. Potencies of inconclusive entries are doubtful fits and often do not repeat.
Potency is the fitted concentration of half-maximal effect; tags give direction and shape of the fitted curve.

Assay: qHTS for Suppressors of FUS Proteinopathy: Primary screen using FUS-linked yeast assay; note: nearly all actives have a fitted effect of over 55% in size
Details: S. cerevisiae FUS-expressing, OD600, 24 h; Potency: growth rescue; series mostly up to 76.6 µM
How it was run: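 FUS-expressing yeast, raffinose-pregrown, induced in 2% galactose minimal medium at OD 0.005; compounds in a dilution series, 24hr at 30C. Growth restoration read as absorbance at 600 nm. CP55940 positive control, DMSO negative.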
With `CC1CCCC(NC(=O)COC(=O)CCSc2ccccc2)C1C` (stereo not given) the Potency was inconclusive: 44.7 µM [activator, single point]. In the case of `O=C(NC1CCN(Cc2ccc(Cl)cc2Cl)CC1)c1ccccc1`, the Potency is reported as “inactive”. For `O=C1Nc2cc(C(=O)NCCCN3CCCC3)ccc2S/C1=C/c1ccccc1F`, the Potency was inconclusive: 8.91 µM [activator, partial curve]. In the case of `CCCOc1ccccc1N/C(=N/c1nc(C)cc(C)n1)NC(=O)COc1ccc(OC)cc1`, the Potency is reported as inconclusive: 2.51 µM [activator, partial curve, poor fit]. In the case of `O=C(COc1cc(Cl)c(Cl)cc1Cl)Nc1ccncc1`, the Potency is reported as inconclusive: 0.891 µM [activator, full curve, poor fit]. In the case of `Cc1cc(-c2c(C)[nH]n(-c3ccc(Cl)cc3)c2=O)n[nH]1`, the Potency is reported as inconclusive: 50.1 µM [activator, single point]. For `Cc1cccc(C(=O)OCC(=O)c2ccc(CC(=O)N3CCOCC3)s2)c1C`, the Potency was inconclusive: 12.6 µM [activator, partial curve]. With `COc1ccc(-c2cc(C(F)(F)F)nc(SCC(=O)N(C)Cc3ccccc3)n2)cc1OC` the Potency was inconclusive: 50.1 µM [activator, single point]. In the case of `CCOc1ccc(CNC(=O)c2ccc3c(c2)nc2n3CCOC2)cc1`, the Potency is reported as “inactive”. In the case of `CCn1c(SCC(=O)c2ccc(-c3ccccc3)cc2)nnc1-c1ccccc1OC`, the Potency is reported as inconclusive: 20 µM [activator, single point]. In the case of `COc1ccc(NC(=O)CSc2nnc(C3CC3)n2-c2ccccc2)cc1`, the Potency is reported as inconclusive: 50.1 µM [activator, single point]. For `Cc1ccc(OCC(=O)N/N=C\c2c(C)n(C)c3ccccc23)c([N+](=O)[O-])c1`, the Potency was inconclusive: 39.8 µM [activator, single point]. For `COc1cccc(NC(=O)N2CC[C@@H]3[C@H]2c2cc(-c4cccc(C#N)c4)ccc2N(C)[C@@H]3CO)c1`, the Potency was inconclusive: 28.2 µM [activator, single point]. In the case of `CCOc1cc(-c2cc(-c3ccccc3)nc(N)c2C#N)ccc1O`, the Potency is reported as “inactive”. With `Cc1nn2c(C)c(C(=O)N3CCN(c4ccccc4)CC3)cnc2c1-c1ccccc1` the Potency was inconclusive: 28.2 µM [activator, single point]. For `COc1ccc(-n2c(COc3ccc(Cl)cc3)nnc2SCc2nc3ccccc3[nH]2)cc1`, the Potency was inconclusive: 15.8 µM [activator, partial curve, poor fit]. In the case of `COc1ccccc1-n1c(C)nc2cc(C(=O)NCc3ccc4c(c3)OCO4)ccc21`, the Potency is reported as inconclusive: 17.8 µM [activator, partial curve]. With `O=C(CCS(=O)(=O)c1cc(Br)cc2c1N(C(=O)C1CC1)CC2)N1CCN(c2ccc(F)cc2)CC1` the Potency was inconclusive: 25.1 µM [activator, single point]. In the case of `Cc1sc2ncnc(NS(=O)(=O)c3ccc(Cl)cc3)c2c1C`, the Potency is reported as inconclusive: 50.1 µM [activator, single point]. For `NC(=S)N/N=C/c1ccc(-c2ccccc2)o1`, the Potency was “inactive”. In the case of `COC(=O)c1sc2ncccc2c1OCc1c(Cl)cccc1Cl`, the Potency is reported as “inactive”. For `O=c1nccc(NCc2ccco2)[nH]1`, the Potency was “inactive”. With `O=C(CCc1ccccc1)N[C@H]1[C@@H](OC(=O)c2cccnc2)CCC[C@@]12C(=O)N(Cc1ccccc1)c1ccccc12` the Potency was inconclusive: 15.8 µM [activator, partial curve]. In the case of `CN(C)C(CNC(=O)c1cc(-c2ccco2)nc2ccccc12)c1ccccc1` (stereo not given), the Potency is reported as inconclusive: 15.8 µM [activator, partial curve, poor fit]. With `CCOc1ccccc1CN1CCc2nc(N3CCN(c4ccccc4F)CC3)ncc2C1` the Potency was “inactive”. With `CCOC(=O)C1=C(C)N=c2s/c(=C/c3ccc(OCC(=O)O)c(OC)c3)c(=O)n2C1c1ccc(Cl)cc1` (stereo not given) the Potency was inconclusive: 35.5 µM [activator, single point]. With `CN1C[C@@H]2[C@@H]3C(=O)N(Cc4ccccc4)C(=O)[C@@H]3[C@](Cc3ccccc3)(C1=O)N2C(=O)c1ccc(Cl)c(Cl)c1` the Potency was active: 14.1 µM. For `COC(=O)c1[nH]c2ccc(Br)cc2c1NC(=O)CN1CCCc2ccccc21`, the Potency was inconclusive: 15.8 µM [activator, partial curve, poor fit]. With `O=C(CCCn1c(=S)[nH]c2cc3c(cc2c1=O)OCO3)N1CCN(c2ccccc2F)CC1` the Potency was “inactive”. With `Cc1[nH]c2ccccc2c1/C=N/Nc1nc(Nc2ccc(F)cc2)nc(N2CCOCC2)n1` the Potency was “inactive”. In the case of `O=C(Cc1ccc(S(=O)(=O)N2CCCC2)s1)Nc1nc2c(s1)CCCC2`, the Potency is reported as inconclusive: 25.1 µM [activator, single point]. In the case of `COC(=O)[C@]12C[C@H](CC(=O)N3CCSCC3)C(=O)N(Cc3cccc4ccccc34)C1=C[C@H](C1CCCC1)O[C@@H]2C`, the Potency is reported as inconclusive: 31.6 µM [activator, single point]. In the case of `Cc1ccc(-n2c(C)cc(C(=O)CSc3n[nH]c(N)n3)c2C)cc1`, the Potency is reported as inconclusive: 22.4 µM [activator, partial curve]. In the case of `COc1cccc(CN2CCC(C(=O)NC(C)c3cccc4ccccc34)CC2)c1` (stereo not given), the Potency is reported as “inactive”. For `CCCCN(C)C(=O)C1CCC(CNS(=O)(=O)c2ccc3c(c2)CC(C)N3C(=O)C2CC2)CC1` (stereo not given), the Potency was inconclusive: 11.2 µM [activator, partial curve]. With `C=CC[C@H](CC(=O)N[C@H](CO)Cc1ccccc1)C(=O)N[C@H](COC(=O)[C@H](CC=C)CC(=O)OC(C)(C)C)Cc1c[nH]c2ccccc12` the Potency was inconclusive: 10 µM [activator, full curve]. With `Cc1ccccc1NS(=O)(=O)c1ccc2[nH]cc(C(=O)NC(C)c3ccccc3)c(=O)c2c1` (stereo not given) the Potency was inconclusive: 35.5 µM [activator, single point]. With `COC(=O)[C@@]1(Cc2ccccc2)[C@@H]2C(=CC(=O)[C@H]2CC(=O)C(=O)N(C)C)CN1C(=O)c1ccccc1` the Potency was “inactive”. In the case of `O=C(NCc1ccc2c(c1)OCO2)c1cc(Cl)ccc1Cl`, the Potency is reported as “inactive”. With `Cc1ccc(-c2cc(-c3ccc4c(c3)OCO4)c(C#N)c(N)n2)o1` the Potency was inconclusive: 28.2 µM [activator, partial curve, poor fit].
